The values that follow come from PubChem BioAssay AID485344 (National Center for Advancing Translational Sciences (NCATS), 2010).

About 6,900 (2%) of roughly 340,000 compounds were called active. Rule as the data show it: active = inhibition above about 30%; inactive = below that, where a call was filed. This is a selection; strong and weak results do not stand in their true shares. Where no call is shown, the source filed none.

Chain of UniProt P14416 (P14416 whole entry, looked up): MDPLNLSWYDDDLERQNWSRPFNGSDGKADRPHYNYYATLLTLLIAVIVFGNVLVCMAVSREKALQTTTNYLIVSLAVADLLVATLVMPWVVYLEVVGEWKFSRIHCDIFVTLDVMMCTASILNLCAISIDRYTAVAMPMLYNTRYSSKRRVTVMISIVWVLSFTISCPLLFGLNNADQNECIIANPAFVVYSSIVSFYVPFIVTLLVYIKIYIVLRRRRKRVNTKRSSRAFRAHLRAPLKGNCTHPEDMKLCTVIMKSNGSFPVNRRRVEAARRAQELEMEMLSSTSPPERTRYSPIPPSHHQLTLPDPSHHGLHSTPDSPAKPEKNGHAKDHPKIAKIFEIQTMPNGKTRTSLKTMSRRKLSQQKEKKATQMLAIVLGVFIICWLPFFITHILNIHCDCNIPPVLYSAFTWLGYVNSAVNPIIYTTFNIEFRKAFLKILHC

The target of this assay is D(2) dopamine receptor (Homo sapiens) (UniProt P14416). As to the kind of experiment: HTS Assay for Allosteric Antagonists of the Human D2 Dopamine Receptor: Primary Screen for Antagonists. Also: 0% is about no effect. The conditions noted are these: HEK293 TREx D2 cells, calcium flux, dopamine EC80; at 10 µM; stronger effect = higher value. An outline of the steps:
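Dopamine at EC80 is the agonist stimulus; test compounds precede it by 180 s. Calcium flux read kinetically in a force-coupled, inducible HEK293 T-REx D2 cell line.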
On the technique in general: Calcium flux is commonly read through the fluorescence of an indicator in the cells.
In general, inhibition refers to the relative decrease from the control value, in per cent. Take `CCc1ccc(NCc2cc3cc4c(cc3n(CC(=O)Nc3ccc(C)cc3)c2=O)OCO4)cc1`: the inhibition was -4.36%.
On to `COc1ccccc1N1CCN(C(=S)Nc2ccccc2)CC1`, for which the inhibition is active: 47.2%.
On to `CC(=O)c1ccc(NC(=O)CSc2nnc3ccc(-c4ccc(Cl)cc4)nn23)cc1`, for which the inhibition is -28.6%.
Under `Cc1ccc(Nc2c(-c3cccs3)nc3nc(C)cc(C)n23)cc1` stands 8.49%; under `CCOc1ccc(NC(=O)C2CCCN(S(=O)(=O)c3cccc4nonc34)C2)cc1` (stereo not drawn), 0.549%.
Take `CCOc1ccc(NC(=O)NCc2c(-n3cccc3)sc3c2CCCC3)cc1`: the inhibition turned out to be 20.5%.
Regarding `Cc1oc2ncnc(N3CCCCC3)c2c1C(=O)N1CCN(c2cccc(C(F)(F)F)c2)CC1`, the inhibition came out at 4.66%.
With `CC(C)Sc1oc(-c2cccs2)nc1S(=O)(=O)c1ccc(Cl)cc1`, the inhibition is -4.89%.
In the case of `CCc1ccccc1N1C(=O)N(Cc2ccc(C#N)cc2)c2ccccc2S1(=O)=O`, the inhibition amounted to 3.49%.
On to `Cc1ccc(CNC(=O)c2ccc(Cn3c(=O)c4ccccc4n(CC(=O)Nc4ccc(C)cc4C)c3=O)cc2)cc1`, for which the inhibition was -7.16%.
Under `CCOc1ccc(S(=O)(=O)NCCc2sc3nc(-c4ccc(F)cc4)nn3c2C)cc1` stands -25.2%.
For `CCOc1ccc(CCNC(=O)c2cn(CC)c3ccc(S(=O)(=O)N4CCc5ccccc5C4)cc3c2=O)cc1OCC`, the inhibition came to 0.679%.
On to `c1ccc(CNc2nc3c(-c4ccccc4)nnn3c3ccccc23)cc1`, for which the inhibition was 2.79%.
For the compound `COc1ccc(SCc2cc(=O)c3cc(Cl)ccc3[nH]2)cc1`, the inhibition was -19.5%.
Take `COc1cccc(NC(=O)C2CCCN(S(=O)(=O)c3c(C)nn(C)c3C)C2)c1` (stereo not drawn): the inhibition is -25.4%.
Under `Cc1cccc(C)c1OCCn1c(C2CC(=O)N(c3cccc(Cl)c3)C2)nc2ccccc21` (stereo not drawn) stands 1.51%; under `O=C(Cc1ccc(Cl)cc1)Nc1ccc2nn(-c3ccc(Cl)cc3)nc2c1`, -7.63%; under `Cc1nc(-c2ccc(F)cc2)c(CC(=O)N(C)CC(=O)Nc2ccc(Br)cc2C)s1`, active: 58.5%.
As for `O=C(NCc1ccc2c(c1)CCN2C(=O)c1ccc(F)cc1)c1cc2ccccc2[nH]1`, the inhibition is -9.7%.
On to `Cc1ccc(-n2ncc(C(=O)NCc3ccccc3C)c2-n2cccc2)cc1`, for which the inhibition was -0.0061%.
As for `COc1ccccc1CNC(=O)CCC(=O)N1CC2CCCN2c2ccccc21` (stereo not drawn), the inhibition was 5.9%.
Under `COc1ccc(-c2[nH]c3ccccc3c2SCCNC(=O)c2cc(OC)c(OC)c(OC)c2)cc1` stands 17.1%.
Turning to `CCC1CCCCN1C(=O)Cn1c(=O)n(CCCCCC(=O)NCc2ccccc2)c(=O)c2sccc21` (stereo not drawn), the inhibition was -16%.
On to `CC(Oc1ccccc1)C(=O)NC1CCN(Cc2ccccc2)CC1` (stereo not drawn), for which the inhibition was active: 42.2%.
Regarding `COc1cccc(NC(=O)c2ccc3nc(CCc4ccccc4)oc3c2)c1`, the inhibition was -5.03%.
To `CCCCNc1nc(Oc2ccc(OCC)nn2)nc(N2CCOCC2)n1` belongs -3.89%.
`COc1ccc(Cl)cc1NC(=O)c1c(NCc2ccc(C)o2)sc2c1CCCCC2`: the inhibition worked out at 2.15%.
Consider `CCCn1c2ccccc2c2cnn(CC(=O)N(C)c3ccc(F)cc3)c(=O)c21`, for which the inhibition was 1.29%.
As to `COc1cccc(CSc2nc3ccccc3c3nc(CCn4c(C)nc5ccccc54)nn23)c1`, the inhibition was -0.248%.
As for `O=C(Cn1cc(C(=O)c2ccco2)c2ccccc21)Nc1ccc(Br)cc1`, the inhibition is -12.6%.
For `O=C(CSc1ccccc1)N1CCc2c([nH]c3ccccc23)C1c1ccc(F)cc1` (stereo not drawn), the inhibition was -18%.
`CC1CCN(S(=O)(=O)c2cn(CC(=O)Nc3cccc(C(F)(F)F)c3)c(=O)c3ccccc23)CC1`: the inhibition was -4.22%.
On to `CSc1ncc2c(n1)-c1ccccc1N(Cc1ccc(Cl)cc1)S2(=O)=O`, for which the inhibition came to 1.54%.
`CCOC(=O)c1cnn(-c2ccc(C(=O)Nc3cc(OC)c(OC)c(OC)c3)cc2)c1N`: the inhibition is 4.75%.
Take `COc1cccc(C(=O)Nc2cccc(C(=O)OCc3cc(=O)n4nc(C5CC5)sc4n3)c2)c1`: the inhibition was found to be 10.8%.
Take `O=C(NC1CCCCC1)c1ccc(Cn2c(SCc3ccccc3F)nc3cccnc32)cc1`: the inhibition worked out at 9.53%.
Turning to `Nc1c(-c2nc(-c3cccs3)no2)nnn1-c1ccc(Cl)cc1`, the inhibition is -10.3%.
On to `CCn1c(C(=O)NCCc2ccc(OC)c(OC)c2)cc2sc(Cl)cc21`, for which the inhibition is -6.69%.
With `COC(=O)c1cc2oc3ccccc3c2n1Cc1nc(-c2ccc(OC)cc2)oc1C`, the inhibition was -0.22%.
On to `Cc1noc(/C=C/c2cccs2)c1S(=O)(=O)N1CCC(C(=O)Nc2ccc(F)c(Cl)c2)CC1`, for which the inhibition is 6.79%.
To `CC(=O)c1ccc(N2CCN(c3ncnc4c3c(-c3ccccc3)cn4-c3cccc(C)c3)CC2)cc1` belongs -2.21%.
Regarding `CCC(=O)N1CCc2cc(Br)cc(S(=O)(=O)N3CCC(C(=O)NCCCOC(C)C)CC3)c21`, the inhibition stood at 1.32%.
For the compound `COc1ccccc1N1CCN(Cc2ccsc2)CC1`, the inhibition was active: 104%.
Turning to `CCOC(=O)c1ccc(NC(=O)c2c(-c3c(F)cccc3Cl)noc2C)cc1`, the inhibition is -1.12%.
Under `Cc1cccc(N2CCN(c3ncnc4c3nc3n4CCCCC3)CC2)c1C` stands -26.1%; under `N#C[C@]1(S(=O)(=O)c2ccccc2)C[C@@H]2ON=C(c3cccc(Br)c3)[C@@H]2C1`, active: 41.5%.
With `CCOc1ccc(NC(=O)c2ccc(NC(=O)N3CCSc4ncccc43)cc2)cc1`, the inhibition was -1.62%.
As to `COc1ccc(C2CC(=O)c3cc(-c4nc(-c5cccc(Cl)c5)cs4)c(=O)[nH]c3C2)cc1OC` (stereo not drawn), the inhibition turned out to be 8.4%.
On to `COC(=O)c1ccccc1NC(=O)c1ccc(COc2ccccc2Cl)o1`, for which the inhibition was -0.0416%.
With `COc1ccccc1CNC(=O)C1CCCN(c2nc3ccccc3n3cccc23)C1` (stereo not drawn), the inhibition was found to be 22%.
`CCCCOc1ccc(-c2nn(-c3ccccc3)cc2C2NC(=O)NC(C)=C2C(=O)OC)cc1` (stereo not drawn): the inhibition was -17.4%.
To `O=C(C1CC1)N1CCc2cc(Br)cc(S(=O)(=O)N3CCN(c4cccc(C(F)(F)F)c4)CC3)c21` belongs -4.13%; to `COc1ccc(Cl)cc1C(=O)Nc1sc2c(c1C(=O)OC(C)C)CCCC2`, -8.63%; to `CC(=O)N1CCc2cc(Br)cc(S(=O)(=O)N3CCN(c4cccc(C(F)(F)F)c4)CC3)c21`, -11.1%.
To `O=C(CCCn1c(=O)c2ccccc2n(Cc2cccc(F)c2)c1=O)NC1CCN(Cc2ccccc2)CC1` belongs active: 39.6%.
For the compound `COc1cc(C(CC(=O)NCc2ccc(F)cc2)N2Cc3ccccc3C2=O)cc(OC)c1OC` (stereo not drawn), the inhibition came to 10.4%.
Turning to `COc1ccc(NC(=O)Cn2c(=O)n(-c3ccc(OC)c(OC)c3)c(=O)c3ccccc32)cc1`, the inhibition was -26.9%.
Turning to `CCCCN(C)c1nc2c(S(=O)(=O)c3ccc(CC)cc3)nnn2c2ccc(Cl)cc12`, the inhibition is 1.87%.
To `COc1ccccc1NC(=O)C1=C(C)Nc2c(C(=O)Nc3ccc(F)cc3)cnn2C1c1cccc([N+](=O)[O-])c1` (stereo not drawn) belongs 0.168%; to `CCOC(=O)c1sc(=S)n(-c2ccc(C)cc2)c1SC`, active: 47.6%; to `Cc1cccc(NC(=O)c2oc3ccccc3c2NC(=O)Cc2coc3c(C)c(C)ccc23)c1`, 18.2%.
As for `O=C(CCC1N=C2c3ccccc3N=C(SCc3ccc(F)cc3)N2C1=O)NCc1cccs1` (stereo not drawn), the inhibition was -8.02%.
Under `CC1=C(c2ccc(C)c(C)c2)S(=O)(=O)N(Cc2ccc(C(=O)NCc3cccc(C)c3)cc2)C1=O` stands 1.25%; under `CCOC(=O)C1=C(CS(=O)(=O)c2cccc(C(F)(F)F)c2)NC(=O)NC1c1cccc(OC)c1` (stereo not drawn), 5.44%; under `CCC(C(=O)Nc1cc(Cl)ccc1OC)n1nc(-c2ccccc2)ccc1=O` (stereo not drawn), 3.67%.
As to `CCc1ccc(OCc2n[nH]c(=S)n2C(C)CCCC(C)C)cc1` (stereo not drawn), the inhibition was active: 47.5%.
As to `Cc1ccc(Nc2c(-c3c[nH]c4ccccc34)nc3cc(C)ccn23)cc1`, the inhibition is -3.02%.
To `CCOc1ccccc1NC(=O)CSc1nc2c(oc3ccccc32)c(=O)n1-c1ccc(C)c(C)c1` belongs 3.86%; to `COc1cc(OC)c(OC)cc1/C=C/c1nc2cc3ccccc3cc2c(=O)n1-c1ccc(Cl)cc1`, 8.07%; to `CCOC(=O)CC(NS(=O)(=O)c1ccc2[nH]c3c(c2c1)CCCC3)c1ccccc1Cl` (stereo not drawn), 17.6%.
With `CC(C)OCCCNC(=O)c1ccc2c(c1)N(Cc1c(F)cccc1Cl)C(=O)c1ccccc1S2`, the inhibition is -8.13%.
For the compound `COc1ccc(-c2nn3c(=O)cc(CN4CCN(C(=O)c5ccc(C(C)(C)C)cc5)CC4)nc3s2)cc1`, the inhibition was -9.87%.
Take `Cc1ccc(Oc2c(C(F)(F)F)oc3c(CN4CCCCC4C)c(O)ccc3c2=O)cc1` (stereo not drawn): the inhibition was -6.56%.
Take `CC(=O)Nc1ccc(OC(=O)c2ccc(Br)c([N+](=O)[O-])c2)cc1`: the inhibition is active: 30.1%.
Under `COc1ccc(C(=O)NCC(c2cccnc2)N2CCc3ccccc32)cc1` (stereo not drawn) stands 10.3%; under `CCOC(=O)c1c(N)n(-c2ccc(C)c(Cl)c2)c2nc3ccccc3nc12`, -5.3%; under `CCOC(=O)c1cc(S(=O)(=O)N2CCN(c3ccccc3)CC2)[nH]n1`, -24.1%.
On to `O=C(Nc1ccccc1)c1nnsc1S(=O)(=O)c1ccc(Cl)cc1`, for which the inhibition is active: 35.7%.
With `CCc1nnc2c3ccccc3nc(Nc3ccc(C(C)=O)cc3)n12`, the inhibition is 1.04%.
To `Cc1ccc(OC(C)C(=O)Nc2nonc2-c2ccc(Br)cc2)cc1C` (stereo not drawn) belongs 11.8%; to `O=C(Nc1c(Cl)cccc1Cl)c1cc(-c2ccc3c(c2)OCO3)on1`, 9.17%; to `CCOC(=O)Cn1c(=O)oc2cc(S(=O)(=O)N3CCN(c4cccc(C)c4C)CC3)ccc21`, 19.2%.
With `Cc1ccc2nc(N(Cc3cccnc3)C(=O)COc3ccccc3)sc2c1`, the inhibition was 0.315%.
In the case of `CCCCN(C)CCCNC(=O)C1CCN(c2nc3ccc(CC)cc3s2)CC1`, the inhibition was -13.9%.
For `CC(C)c1ccc(NC(=O)C2CCCN(S(=O)(=O)c3cccc4cccnc34)C2)cc1` (stereo not drawn), the inhibition is -0.292%.
On to `O=C(COc1ccccc1)N/N=C/c1sc(=O)n(Cc2cccc(C(=O)O)c2)c1Cl`, for which the inhibition is active: 44.4%.
Regarding `Cc1cccc(C(=O)NCCC(=O)N2CCc3ccccc3C2)c1`, the inhibition was active: 32.1%.
To `COC(=O)c1c(-c2ccc(Cl)cc2)noc1N1CCN(c2ccc(C)cc2C)CC1` belongs -4.13%.
Take `CCOC(=O)Cc1ccc(NC(=O)N2CCOc3ccc(C)cc32)cc1`: the inhibition was -4.33%.
With `COc1ccc(OC)c(NC(=O)c2noc3c2CCCC3)c1`, the inhibition was -1.73%.
On to `CC(=O)c1ccc(NC(=O)CCSc2nc(-c3ccco3)cc(C(F)(F)F)n2)cc1`, for which the inhibition was -2.48%.
For the compound `Cc1c(S(=O)(=O)c2cccc(Cl)c2)nnn1-c1cccc(C(F)(F)F)c1`, the inhibition was -10.6%.
With `Cc1ccc(CNC(=O)C(CC(C)C)NS(=O)(=O)c2ccc3c(c2)oc(=O)n3C)cc1` (stereo not drawn), the inhibition is -9.91%.
